# Experimental data from PubChem BioAssay AID488969 (Vanderbilt High Throughput Screening Facility, 2010).
# Over roughly 110,000 compounds, “z-score” has its median near -0.1; the highest 2% begin near 2. The list shows a part of the results. Active and inactive are the calls of the source.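 The calls were made as follows: active = z-score in the third read window above 3 or below -3; inactive = the rest.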
# Molecular target: Metabotropic glutamate receptor 8 (Rattus norvegicus) (UniProt P70579)
# Assay: mGluR8 Gi/Go-coupled signaling modulation – cell-based, rat, thallium flux, HTS, primary screen (AID 488969)
# Conditions: HEK293 rat mGluR8, GIRK (G protein-gated inwardly rectifying potassium channel) thallium flux, FluoZin2; at 10 µM; stronger effect = higher value; submaximal glutamate (EC20) added with thallium
# Sequence of UniProt P70579 (P70579 whole entry, looked up): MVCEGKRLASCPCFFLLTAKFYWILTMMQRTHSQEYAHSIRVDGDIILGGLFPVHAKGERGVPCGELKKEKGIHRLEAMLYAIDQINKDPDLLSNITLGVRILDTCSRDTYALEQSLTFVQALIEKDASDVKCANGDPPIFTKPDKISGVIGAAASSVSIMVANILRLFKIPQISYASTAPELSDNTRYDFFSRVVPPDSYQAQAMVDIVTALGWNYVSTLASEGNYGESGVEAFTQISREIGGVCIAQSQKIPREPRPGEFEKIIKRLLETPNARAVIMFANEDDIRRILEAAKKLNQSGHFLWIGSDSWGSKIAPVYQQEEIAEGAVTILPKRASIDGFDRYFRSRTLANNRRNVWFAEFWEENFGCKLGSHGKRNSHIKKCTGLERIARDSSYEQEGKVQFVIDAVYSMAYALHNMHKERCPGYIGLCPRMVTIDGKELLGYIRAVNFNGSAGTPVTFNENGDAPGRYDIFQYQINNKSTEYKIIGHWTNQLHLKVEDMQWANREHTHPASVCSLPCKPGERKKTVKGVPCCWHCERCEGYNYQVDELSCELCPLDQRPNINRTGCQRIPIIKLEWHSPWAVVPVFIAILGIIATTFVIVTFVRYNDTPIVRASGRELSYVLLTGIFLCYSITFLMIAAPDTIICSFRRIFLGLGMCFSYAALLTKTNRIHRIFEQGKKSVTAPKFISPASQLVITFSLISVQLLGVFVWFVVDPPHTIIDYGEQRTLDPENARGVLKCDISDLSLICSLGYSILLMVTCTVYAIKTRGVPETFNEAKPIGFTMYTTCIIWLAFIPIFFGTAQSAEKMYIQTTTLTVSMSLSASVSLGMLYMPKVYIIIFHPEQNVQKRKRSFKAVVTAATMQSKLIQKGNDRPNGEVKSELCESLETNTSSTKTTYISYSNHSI
row,Structure (SMILES),z-score
1,COc1ccc(S(=O)(=O)NCCCCCC(=O)NCCCN2CCOCC2)cc1,2.89
2,O=C1CN(c2ccccc2Cl)C(=O)CN1c1ccccc1Cl,0.348
3,Cc1cc(C)nc(N2CCCC(C(=O)NCCc3ccc(F)cc3)C2)n1 (stereo unspecified),active: 3.52
4,CCOc1ccc(Nc2cc(=O)n(C)c(=O)n2C)cc1,-0.164
5,CCc1nnc(NC(=O)c2ccc(S(=O)(=O)N3CCCCCC3)cc2)s1,-0.371
6,COc1ccc(/C=C2\SC(=S)N(CCC(=O)NC3=NCCS3)C2=O)cc1OC,-0.134
7,CCCCOc1ccc(/C=C/C(=O)OCC(=O)N2CC(=O)Nc3ccccc32)cc1OCC,-0.338
8,Cc1cc(C)n(C(=O)CNC(=O)c2cccs2)n1,-0.0552
9,Clc1ccc(SCCCCN2CCOCC2)cc1,-0.0426
10,CCCS(=O)(=O)N1CCCC(C(=O)NC(C)c2ccc3c(c2)OCCO3)C1 (stereo unspecified),-0.27
11,CCN(CC)S(=O)(=O)c1cc(C(=O)Nc2nncs2)c(Cl)cc1Cl,-0.233
12,O=C(NCc1ccco1)c1cc(-c2ccc(Cl)cc2)on1,-0.403
13,CCOc1ccc(C(=O)OCC(=O)c2c(N)n(C)c(=O)n(C)c2=O)cc1OCC,0.0392
14,CC(C)=CC(=O)Nc1nnc(C)s1,0.00638
15,Cc1nc2ccccc2n1/N=C/c1ccc([N+](=O)[O-])o1,-0.175
16,CC(=O)N1CCc2ccc(S(=O)(=O)N3CC(C)OC(C)C3)cc21 (stereo unspecified),0.441
17,CN(C)c1ccc(C(=S)NCc2ccco2)cc1,0.336
18,O=C(NNS(=O)(=O)c1cccc(Cl)c1Cl)c1cccc(S(=O)(=O)N2CCOCC2)c1,-0.174
19,Cc1ccc(NC(=O)CSc2nnc(C(F)(F)F)n2C)cc1[N+](=O)[O-],0.0206
20,NS(=O)(=O)c1ccc(NS(=O)(=O)/C=C/c2ccccc2)cc1,-0.425
21,CCn1cc(CN(C)C(=O)/C=C/c2ccc([N+](=O)[O-])cc2)c(C)n1,-0.0931
22,CC(=O)N1N=C(c2ccc(Cl)cc2)OC1c1ccc(C(C)C)cc1 (stereo unspecified),-0.945
23,COCCn1nnnc1CN1CCC(C)CC1,0.321

row,Structure (SMILES),z-score
1,COCCNC(=O)C(=O)NCCN1CCOCC1,-0.127
2,COc1ccc(-c2cc(C(F)F)n3ncc(C(=O)N4CCN(C)CC4)c3n2)cc1,-0.201
3,O=C(C[n+]1ccsc1)c1ccccc1,-0.136
4,Cc1ccc(CN=Cc2[nH]c3ccc(Br)c(Cl)c3c2O)cc1,-0.163
5,CCCCn1c(SCC(=O)Nc2ccc3c(c2)OCO3)nc2c1c(=O)n(C)c(=O)n2C,0.0796
6,O=C(CCS(=O)(=O)Cc1ccccc1)NCc1ccco1,-0.123
7,Cc1cc(C)c(OC2(c3ccccc3)OC(=O)c3ccccc32)c(C)c1 (stereo unspecified),-0.25
8,COCCNC(=O)CN(C(=O)CCC(=O)Nc1cc(C)on1)c1ccc(C)cc1C,1.08
9,Cc1ccc(C(=O)O/N=C/c2ccc3c(c2)OCO3)cc1,-0.102
10,CCOC(=O)n1ccc(C(=O)Nc2ccccc2F)n1,-0.0236
11,CC1CCN(c2[nH]c(=S)c(C#N)c3c2CCCC3)CC1,-0.0937
12,COC(=O)c1cc(NC(=S)NCc2ccc(Cl)cc2)cc(C(=O)OC)c1,0.1
13,O=S(=O)(NCc1ccc(Cl)cc1)c1ccc(Cl)nc1,0.057
14,CC(=O)c1c(N2CCOCC2)nc(=S)n(Cc2ccccc2)c1C,0.00352
15,Cc1ccccc1Cn1nnc2c1C(=O)c1ccccc1C2=O,0.259
16,CC(C)CNC(=O)CSc1nc(-c2cccs2)cc(C(F)(F)F)n1,-1.24
17,CCCn1c(SCC(=O)NC23CC4CC(CC(C4)C2)C3)n[nH]c1=O,-0.0293
18,CC1(C)Cc2c(sc(NC(=O)c3ccc(Br)o3)c2C#N)CO1,-0.949
19,Cc1cc(C)n2c(SCC(=O)Nc3c(C)n(C)n(-c4ccccc4)c3=O)nnc2n1,-0.189
20,CCOC(=O)C(CSCC(=O)c1ccc(Br)cc1)NC(=O)OC(C)(C)C (stereo unspecified),-0.243
21,CC1(C)Cc2c(cnn2-c2ccccc2)C(=O)/C1=N\NC(=O)c1ccncc1,-0.198
22,CC(Oc1ccc(Br)cc1)C(=O)Nn1c(=S)[nH]c2ncccc2c1=O (stereo unspecified),-0.579
23,CCc1cc(-c2n[nH]c(=S)n2C(C)c2ccccc2)cs1 (stereo unspecified),2.55

row,Structure (SMILES),z-score
1,COc1ccc(CNC(=O)c2ccc(CN3CCOCC3)cc2)cc1,-0.000463
2,COc1ccc(C(=O)C(CN2CCCC2)c2ccccc2)cc1 (stereo unspecified),0.349
3,O=C(CSc1cc(Cl)ccc1Cl)NCC1CCCO1 (stereo unspecified),-0.0958
4,COc1ccc(-c2csc(N(CCCN3CCOCC3)C(=O)c3ccco3)n2)cc1,-0.222
5,COC(=O)CSc1nc2ccc(NC(=O)CSc3nnnn3Cc3ccccc3)cc2s1,-0.296
6,Cc1cccc(CCNC(=O)C2CCC(=O)N2Cc2ccc(F)cc2)c1 (stereo unspecified),-0.122
7,COc1cc(NC(=O)c2cccs2)c(C(=O)OCC(=O)NCc2ccccc2)cc1OC,0.16
8,Cc1ccc(-c2csc(/C(C#N)=C/Nc3ccccc3SC(F)(F)F)n2)cc1,-0.319
9,N#Cc1c(Nc2ccccc2)sc(C(=O)c2ccc(F)cc2)c1N,-0.289
10,O=C(COc1ccc([N+](=O)[O-])cc1)N(Cc1ccccc1)Cc1ccccc1,-0.0952
11,CCCC(C)NC(=O)c1ccc(F)cc1 (stereo unspecified),0.0358
12,Cc1ccc(C(=O)N/C(=C/c2ccccc2)C(=O)NC(Cc2ccccc2)C(=O)O)cc1 (stereo unspecified),-0.249
13,O=C(Nc1nnc(SCc2cccc3ccccc23)s1)C1COc2ccccc2O1 (stereo unspecified),-0.0973
14,COc1ccccc1OCCC(=O)OCC(=O)NCc1ccccc1,0.33
15,COc1ccc(OC)c(C2C(C(C)=O)=C(O)C(=O)N2CCc2ccc(OC)c(OC)c2)c1 (stereo unspecified),-0.577
16,C=CCn1c(=O)[nH]c2cc(C(=O)N3CCN(c4cccc(Cl)c4)CC3)ccc2c1=O,-0.302
17,Cc1cc(C(F)(F)F)c(C#N)c(=O)[nH]1,-0.0803
18,COc1ccc(CNCc2cc3c(C(C)(C)C)nn(-c4ccccc4)c3[nH]c2=O)cc1,-1.08
19,O=C(Nc1ncn[nH]1)c1c(Cl)ccc(Cl)c1Cl,-0.166
20,O=C(Nc1nnc(CCS(=O)(=O)c2ccc3ccccc3c2)s1)c1ccc([N+](=O)[O-])cc1,-0.0917
21,COC(=O)c1sccc1NC(=S)N1CCN(c2ccccc2F)CC1,-0.119
22,NC(=O)c1cnn(Cc2ccc(Cl)cc2)c1N,0.39
23,CCN(CC)C(=O)CN(c1ccc(Cl)cc1)S(=O)(=O)c1ccccc1,-0.473

row,Structure (SMILES),z-score
1,O=C(COC(=O)C1CC(=O)N(c2ccccc2)C1)c1ccccc1 (stereo unspecified),-0.302
2,Cc1ccc(S(=O)(=O)Nc2ccc3c4c(cccc24)CC3)c(C)c1,0.186
3,Cn1c(=O)cc(OCCCC(=O)Nc2ccccn2)c2ccccc21,-0.243
4,CC1=C(C)/C(=N\OS(=O)(=O)c2ccccc2)C=CC1=O,0.632
5,O=C(CCCn1c(=O)[nH]c2cc(Cl)ccc2c1=O)NC1CCCCCC1,-0.173
6,CN(c1ccccc1)S(=O)(=O)c1cccc(NC(=O)CSc2nncs2)c1,-0.209
7,COc1cc(OC)cc(C(=O)N[C@H](C(=O)N2CCc3ccccc32)C(C)C)c1,-0.177
8,CCSc1nc(C2CC2)cc(-c2ccco2)c1C#N,-0.0872
9,COc1cc(NC(=S)NC(=O)c2c(OC)cccc2OC)ccc1NC(=O)c1cccs1,-0.249
10,Cn1c(CNc2ccccc2O)nc2ccccc21,-0.0926
11,CCOC(=O)c1c(C)c(C(=O)N2CCc3ccccc3C2)c(C)n1CC,-1.91
12,Cc1cccc(C)c1-n1c(C)cc(/C=N/NC(N)=S)c1C,-0.613
13,CCCS(=O)(=O)n1nc(-c2ccc(C)cc2)cc1N,0.45
14,Cc1cccc(-n2c(N)c(-c3nc4ccccc4n3C)c3nc4ccccc4nc32)c1,0.68
15,Cc1cc(Cl)ccc1OCCCC(=O)N1CCCc2ccccc21,-0.177
16,CC(C)Cn1c(=O)c2c(c3ccccc31)OC(C)C(=O)N2 (stereo unspecified),-0.811
17,O=C1C2ON(c3ccccc3)C(c3ccncc3)C2C(=O)N1c1ccc(Br)cc1 (stereo unspecified),0.171
18,CCN1CCCC1CNC(=O)c1ccc2c(=O)n(CCOC)c(=O)[nH]c2c1 (stereo unspecified),0.53
19,Cc1ccc(CNC(=O)c2ccc(NC(=O)CCS(=O)(=O)c3cccs3)cc2)cc1,-0.474
20,CCS(=O)(=O)CCSc1nc2c(cc1C#N)CCCC2,-0.298
21,Cc1cccc(NC2=NCC(=O)N2CCc2ccccc2)c1,-0.423
22,O=C(NCc1ccc2c(c1)OCO2)C1CC(=O)N(c2ccc(O)cc2)C1 (stereo unspecified),0.604
23,COc1ccc(NC(=O)C(c2ccccn2)N(C(C)=O)c2ccc(C)cc2)cc1 (stereo unspecified),0.0764

row,Structure (SMILES),z-score
1,COCCN(Cc1cc2cccc(C)c2[nH]c1=O)C(=O)c1ccccc1,0.694
2,CCC(=O)Nc1sc2c(c1C(N)=O)CCC2,0.815
3,CN1C(=O)N(c2ccccc2)C(Nc2nncs2)C1(C)C (stereo unspecified),-1.59
4,Cc1cccc(-c2cc3c(nn2)-c2ccccc2C3=O)c1,-0.268
5,CCOc1ccc(S(=O)(=O)Nc2cccc(N(C)S(C)(=O)=O)c2)cc1,-0.0173
6,CC1CC(=O)Nc2ccc([N+](=O)[O-])cc2N1C (stereo unspecified),-0.291
7,CCOC(=O)c1sc(NC(=O)CSc2nc3ccccc3o2)c(C(=O)OCC)c1C,-0.175
8,Cc1c(C(=O)N2CCOCC2)[nH]c2c1C(=O)CC(c1ccc(Cl)cc1)C2 (stereo unspecified),-0.803
9,O=c1c(Cl)c(N/N=C/c2ccc(Cl)cc2)cnn1-c1ccccc1,-0.166
10,COCCNC(=O)CSc1nnc2c(Cl)cc(Cl)cn12,0.0414
11,COc1cccc(-n2nnnc2SCC(=O)NC2CCCC2)c1,-0.27
12,O=C(COC(=O)c1ccccc1C(=O)c1ccc(Cl)cc1)NCc1ccccc1,-0.106
13,CN(Cc1ccccc1)C(=O)NC1CCCCC1,-0.0271
14,COc1ccc(NC(=O)CCC(=O)c2ccc(-c3ccccc3)cc2)cc1,-0.0832
15,Cc1c(C(=O)N(C)C)sc(NC(=O)c2cccc([N+](=O)[O-])c2)c1C#N,-0.178
16,CC1=NOC(=O)/C1=C/c1ccc(N(C)C)cc1,-0.24
17,CN(C)C(=O)c1cn(-c2ccccc2)c(=O)c2ccccc12,-0.0584
18,COc1ccc(C)cc1NC(=O)CN1CCN(CC(=O)Nc2ccccc2F)CC1,0.0527
19,COCCn1c(-c2ccccc2)nc(=S)c2c1CC(C)(C)OC2,-0.0646
